Assay results taken from PubChem BioAssay AID1347417 (National Center for Advancing Translational Sciences (NCATS), 2020).
Out of some 120,000 compounds screened, about 5,300 (4.4%) were called active. This list was built around the results that the source calls inconclusive (neither active nor inactive); the mix of calls is not that of the screen. The call rests on the fitted dose curve; in most records, active means well fitted inhibition curve with a large enough effect; inconclusive means small, poorly fitted or top-dose-only effect; inactive means no such curve, though single readings can be large or run the other way. Potencies beside an inconclusive call are fits to weak or partial responses and may not hold up.
Potency means the concentration at half of the fitted maximal effect; tags describe the fitted curve by direction and shape.

Assay: qHTS Primary assay for Inhibitors of Plasmodium falciparum Dd2 growth in vitro; further: nearly all actives have a fitted effect of over 65% in size;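 on activity, negative = inhibition: plate controls were DMSO vehicle for no effect and reference drug for full effect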
Settings: P. falciparum Dd2 growth, SYBR Green, 72 h; activity, negative = inhibition: at 28.9 µM (top of the series) unless noted; series mostly up to 28.9 µM
Procedure, shortened: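 Readout: SYBR Green fluorescence, 485 nm excitation, 535 nm emission, after ~16 h lysis at 37C. Before that, Dd2-infected red cells (2.5% hematocrit) grew 72 h with compound, 29 uM top final concentration.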
With `Cc1ccc(C(=O)Nc2ccc(-c3nnc4n3CCCC4)cc2)s1` the Potency was active: 5.62 µM.
With `CC(=O)N1CCC2(C1)C(=O)N(CCc1ccccc1)c1ccccc12` (stereo not given) the Potency was “inactive”.
For `O=C(Cc1ccc(NC(=O)N2CCSc3ncccc32)cc1)NCCc1ccccc1`, the Potency was inconclusive: 0.199 µM [inhibitor, full curve, poor fit].
With `O=C(NCc1cccc(F)c1)c1cccnc1N1CC2CC(C1)[C@H]1CCCC(=O)N1C2` (stereo not given in full) the Potency was inconclusive: 2.24 µM [inhibitor, full curve].
For `O=C(C1CCCC1)N1Cc2ccccc2CC2(CCCCN2CC2CCNCC2)C1` (stereo not given), the Potency was active: 5.01 µM.
For `O=c1c2c(CO)c(-c3ccc(F)cc3)nn2ccn1Cc1cc(F)ccc1F`, the Potency was inconclusive: 7.94 µM [inhibitor, partial curve, poor fit].
In the case of `O=C1c2[nH]nc(-c3ccc(Br)cc3)c2C(c2cccc(O)c2)N1c1ccc(Cl)cc1` (stereo not given), the Potency is reported as inconclusive: 11.2 µM [inhibitor, partial curve, poor fit].
With `CC(Oc1cccc(Cl)c1)C(=O)Nc1ccc2c(N3CCOCC3)ncnc2c1` (stereo not given) the Potency was inconclusive: 3.98 µM [inhibitor, single point].
With `O=C1N(CCc2ccccc2)CCOC12CCN(Cc1ccc3c(c1)CCO3)CC2` the Potency was inconclusive: 7.94 µM [inhibitor, partial curve, poor fit].
In the case of `COC(=O)[C@@H]1Cc2c([nH]c3ccccc23)[C@H]2C[C@@H](NCc3ccccc3)C[C@@H](c3ccccc3F)N21`, the Potency is reported as inconclusive: 10 µM [inhibitor, single point].
With `COC(=O)CC[C@H]1CNC(=O)[C@@H]2[C@@H](CCN2Cc2ccc(C(F)(F)F)cc2)N1C` the Potency was inconclusive: 31.6 µM [inhibitor, single point].
For `Cc1ccccc1NC(=O)c1c(NC(=O)Cc2ccccc2)sc2c1CCC2`, the Potency was inconclusive: 17.8 µM [inhibitor, single point].
In the case of `CCOC(=O)N1CCc2c(sc3c2c(=O)n(-c2ccc(CC)cc2)c(=O)n3CC(=O)Nc2ccc(C)cc2)C1`, the Potency is reported as inconclusive: 17.8 µM [inhibitor, single point].
In the case of `CC1CCc2nn3ccn(CC(=O)Nc4ccc(C(F)(F)F)cc4)c(=O)c3c2C1` (stereo not given), the Potency is reported as inconclusive: 11.2 µM [inhibitor, single point].
With `Cc1ccc(S(=O)(=O)N2CCCC(Cn3c(C)nc4cccnc43)C2)cc1C` (stereo not given) the Potency was inconclusive: 2.82 µM [inhibitor, full curve, poor fit].
With `CN(C)c1cccc(Oc2nnnn2[C@H]2CO[C@H]3[C@@H]2OC[C@@H]3NC(=O)CC2(CC(=O)O)CCCC2)c1` the “activity, negative = inhibition” value was inactive: 26.1%.
In the case of `O=C(Nc1nn(Cc2ccccc2)c2cccc(N3CCOCC3)c12)c1cnccn1`, the Potency is reported as inconclusive: 6.31 µM [inhibitor, partial curve, poor fit].
For `CCN(C)C(=O)C(C)N1CCc2onc(-c3ccc(-c4ccccc4)cc3)c2C1` (stereo not given), the Potency was inconclusive: 14.1 µM [inhibitor, partial curve, poor fit].
In the case of `Cn1c(COc2cccc(C(F)(F)F)c2Cl)nnc1C1CC(N)C1` (stereo not given), the Potency is reported as inconclusive: 14.1 µM [inhibitor, single point].
For `CCCc1ccc(CN2CCCC(O)(CN(C)C)C2)o1` (stereo not given), the Potency was inconclusive: 5.62 µM [inhibitor, partial curve].
With `CCOc1ccc(CCNC(=O)c2nnc(Cc3ccc(Cl)cc3Cl)o2)cc1OCC` the Potency was inconclusive: 10 µM [inhibitor, single point].
In the case of `COc1ccc(CNC(=O)Cn2c(-c3ccc(F)cc3)nc(C)c(CCO)c2=O)cc1`, the “activity, negative = inhibition” value is reported as inactive: -12.9%.
With `O=S(=O)(c1ccc(F)cc1)N(CC(O)Cn1c2ccccc2c2ccccc21)c1ccccc1` (stereo not given) the Potency was inconclusive: 11.2 µM [inhibitor, partial curve, poor fit].
In the case of `COc1ccc(OC)c(NC(=O)c2cccc3c2C(=O)N(C2CCCCC2)C3)c1`, the Potency is reported as inconclusive: 17.8 µM [inhibitor, single point].
For `CN1CCC(Oc2ncccc2C(=O)O)CC1`, the “activity, negative = inhibition” value was inactive: 32.9%.
In the case of `COc1cccc(CN2C(=O)CCCCC2C(=O)NCCc2ccccc2)c1` (stereo not given), the “outcome” value is reported as “inactive”.
For `COCc1nc(C2CCCN(C(=O)c3ccccc3F)C2)no1` (stereo not given), the “activity, negative = inhibition” value was inactive: 33.7%.
For `COc1cccc(C(=O)N2CCCCC2CCN2CCCCC2)c1` (stereo not given), the Potency was inconclusive: 11.2 µM [inhibitor, single point].
For `Cc1cnc(C(=O)N2CCC(Oc3cccnc3)C2)cn1` (stereo not given), the “activity, negative = inhibition” value was inactive: 2.79%.
For `COC(=O)c1cccc(NC(=S)N[C@H]2CO[C@H]3[C@@H]2OC[C@@H]3n2nnnc2Oc2ccc3c(c2)OCO3)c1`, the Potency was inconclusive: 10 µM [inhibitor, partial curve].
In the case of `CCc1noc(-c2cccn3c(CNC(=O)c4cccc(Cl)c4)nnc23)n1`, the Potency is reported as inconclusive: 20 µM [inhibitor, single point].
With `O=C(NCCc1ccc(F)cc1)c1cc(CN2CCOCC2)on1` the “activity, negative = inhibition” value was inactive: -4.23%.
With `Cc1cc(C)cc(-n2c(SCC(=O)N3CCC(C)CC3)nc3c([nH]c4ccccc43)c2=O)c1` the Potency was inconclusive: 3.98 µM [inhibitor, single point].
With `CN1CCCN(C(=O)C2CCCN(Cc3ccncc3)CCC(=O)NCC2)CC1` (stereo not given) the “activity, negative = inhibition” value was inactive: 4.01%.
For `Cc1ccc(C)c(N2CCN(C(=O)Cc3c(C(=O)O)c(C)cn3C)CC2)c1`, the “activity, negative = inhibition” value was inactive: 4.31%.
With `COc1ccc2c(c1)c(CN1CCOCCNC(=O)CC1)cn2C(C)C` the Potency was inconclusive: 3.98 µM [inhibitor, partial curve, poor fit].
For `CCc1cc(=O)n(CC(=O)Nc2ccc(C)cc2Cl)c(N2CCOCC2)n1`, the “outcome” value was “inactive”.
In the case of `CN1CCN(C(=O)C2(N(C)CCc3ccccc3)Cc3ccccc3C2)CC1`, the Potency is reported as active: 1 µM.
In the case of `COc1cccc(N2C(=O)[C@@H]3C[C@@H](NC(=O)C4CCN(c5nccc(C(F)(F)F)n5)CC4)CCN3C2=O)c1`, the “activity, negative = inhibition” value is reported as inactive: -10.3%.
For `COc1cccc(CNC(=O)N2CCC(N3CC4CC(C3)[C@H]3CCCC(=O)N3C4)CC2)c1` (stereo not given in full), the “activity, negative = inhibition” value was inactive: 7.51%.
In the case of `CCCn1cnnc1CNC(=O)C1(Oc2ccc(Cl)cc2)CCNCC1`, the “activity, negative = inhibition” value is reported as inactive: 6.93%.
With `COCCN1C(=O)[C@H]2CN(CCC(C)C)C[C@H]2C1=O` the “activity, negative = inhibition” value was inactive: 13.5%.
With `COc1ccc2c(c1)C1(CCN(C(=O)c3ccccc3Br)C1)C(=O)N2` (stereo not given) the Potency was inconclusive: 15.8 µM [inhibitor, partial curve, poor fit].
With `COc1ccc(Cl)cc1-c1ncc2c(n1)OCCN(c1ccccc1)C2=O` the Potency was inconclusive: 10 µM [inhibitor, partial curve].
With `CSc1ccc(C2C(C(=O)Nc3ccccc3)=C(C)Nc3nc4ccccc4n32)cc1` (stereo not given) the Potency was inconclusive: 11.2 µM [inhibitor, single point].
In the case of `CCCC1(CO)CCCN(CC(=O)NC(C)(C)CC)C1` (stereo not given), the “activity, negative = inhibition” value is reported as inactive: -24.9%.
For `COc1ccc(S(=O)(=O)c2c(Nc3ccccc3F)sc(C(=O)c3cccc(OC)c3)c2N)cc1`, the Potency was active: 11.2 µM.
In the case of `O=C(NCCc1ccccc1)N1CC(Oc2ccccc2-c2nc(-c3ccccc3)no2)C1`, the Potency is reported as inconclusive: 7.94 µM [inhibitor, partial curve, poor fit].
In the case of `COc1ccccc1CNC(=O)[C@H]1CN2CCC1C[C@@H]2Cn1cc(-c2cccc(N)c2)nn1` (stereo not given in full), the Potency is reported as inconclusive: 15.8 µM [inhibitor, partial curve, poor fit].
For `COc1ccc2c(c1)CN(C(=O)c1ccnc(Cl)c1)CC[C@H]1COC(=O)N21`, the “activity, negative = inhibition” value was inactive: -9.4% [at 44.1 µM].
For `Cc1ccc(CNC(=O)C2CCN(c3cnn(Cc4ccccc4)c(=O)c3)C2)o1` (stereo not given), the “outcome” value was “inactive”.
With `COc1cc(OC)c(NC(=O)N2CCc3c([nH]c4ccccc34)C2c2ccccc2F)cc1Cl` (stereo not given) the Potency was inconclusive: 11.2 µM [inhibitor, partial curve, poor fit].
For `O=C(Nc1ccccc1F)c1ccc(Cn2nc(N3CCN(c4ccccc4)CC3)ccc2=O)o1`, the Potency was inconclusive: 17.8 µM [inhibitor, single point].
In the case of `COc1ccc(C2NC(=O)N(CC(=O)N3CCCCCC3)C3=C2C(=O)OC3)cc1` (stereo not given), the Potency is reported as inconclusive: 17.8 µM [inhibitor, single point].
In the case of `O=C(c1cccnc1)N1CCC2(C1)C(=NC1CCCC1)NC(=O)N2c1cccnc1` (stereo not given), the “activity, negative = inhibition” value is reported as inactive: 16.4%.
With `Cc1ccc(OCC(=O)Nc2ccccc2C(=O)OCc2cc(=O)n3ccsc3n2)cc1` the Potency was inconclusive: 0.0141 µM [inhibitor, full curve, poor fit].
For `O=C(C1CCC(Cn2c(=O)c3sccc3n(Cc3ccccc3)c2=O)CC1)N1CCOCC1` (stereo not given), the Potency was inconclusive: 12.6 µM [inhibitor, single point].
In the case of `CN(C)CCN1CC2(CCN(C(=O)CCCS(N)(=O)=O)CC2)OC1=O`, the “activity, negative = inhibition” value is reported as inactive: 5.21%.
In the case of `Cc1ccc(Cl)cc1N1CCN(C(=O)c2cnn(C)c2C2CCN(C(=O)OC(C)(C)C)CC2)CC1`, the Potency is reported as active: 3.98 µM.
With `COc1ccc(C2Cn3nnc(C(=O)NC4CCCCCC4)c3CO2)cc1` (stereo not given) the Potency was inconclusive: 17.8 µM [inhibitor, single point].
For `COc1ccc(S(=O)(=O)N2CCOC[C@H](Oc3ccc(C(F)(F)F)cn3)C2)cc1`, the Potency was inconclusive: 20 µM [inhibitor, single point].
For `CN(Cc1ccccc1)Cc1cn([C@H]2CO[C@H]3[C@@H]2OC[C@@H]3NCc2ccccc2)nn1`, the Potency was inconclusive: 28.2 µM [inhibitor, single point].
For `Cn1ccc2c(C(=O)NCc3cccnc3)nc(-c3cccc(N4CCOCC4)c3)cc21`, the Potency was inconclusive: 22.4 µM [inhibitor, single point].
With `Cc1ncccc1C(=O)N1CCC(COc2ccc3c(cnn3CC[S+](C)(=O)[O-])c2)CC1` the “activity, negative = inhibition” value was inactive: -7.42%.
For `Cc1noc2c(Nc3ccc(N4CCOCC4)cc3)cc(-c3cccs3)nc12`, the Potency was inconclusive: 20 µM [inhibitor, single point].
